This passage reports self-cleavage results from the RNAGym collection of RNA variant scans (doi:10.7554/elife.90254).

Read counts are not given, so values of variants with three or more changes are uncertain.

B1: LINE1-mini (parent)
chain: GGCAGAGCUCAACACAGCGUGGCAAAGUGGCUGUGGCUAGACUGCC

Variants of B1 are the subject of the data set. Nature of the data set: self-cleavage, relative activity (ratio to wild type); higher = more cleavage; in vitro, sequencing; the parent is a self-cleaving ribozyme.
GGCAGAGCUCAACACAGCGUGGCAAAGUGAGUGUUGCUAGACUGCC [G30A C31G G35U]: the self-cleavage turned out to be 0.01.

For GGCAGAGCUCAACACAGCGUGGCAAAGUUGCUGUAGCUAGACGGCC [G29U G35A U43G], the self-cleavage worked out at 0.

As to GGCAGAGCUCAACACAGCGUGGCAAAGUUGCUGUGGCUUAACUGCC [G29U A39U G40A], the self-cleavage is 0.05.

As for GGCAGAGCUCAACACAGCGUGGCAAAGUCGCUGUGGGUAAACUGCC [G29C C37G G40A], the self-cleavage came out at 0.02.

Take GGCAGAGCUCAACACAGCGUGGCAAAGUUGCUGGGGCUAGAAUGCC [G29U U34G C42A]: the self-cleavage was 0.04.

Consider GGCAGAGCUCAACACAGCGUGGCAAAGUCGUUGUGGCUAGACUUAC [G29C C31U G44U C45A], for which the self-cleavage worked out at 0.04.

For the variant GGCAGAGCUCAACACAGCGUGGCAAAGUCGCUGUGGCUUGAAUGCC [G29C A39U C42A], the self-cleavage amounted to 0.

GGCAGAGCUCAACACAGCGUGGCAAAGUUGGUGUGGUUACACUGCC [G29U C31G C37U G40C]: the self-cleavage was 0.02.

On to GGCAGAGCUCAACACAGCGUGGCAAAGUCGGUGUGGCUAUACUGCC [G29C C31G G40U], for which the self-cleavage was found to be 0.06.

For GGCAGAGCUCAACACAGCGUGGCAAAGUCGUUGUGGUUAGACUGCC [G29C C31U C37U], the self-cleavage was 0.11.

As to GGCAGAGCUCAACACAGCGUGGCAAAGUCGUUGUGACUAGAUUGCC [G29C C31U G36A C42U], the self-cleavage amounted to 0.01.

Take GGCAGAGCUCAACACAGCGUGGCAAAGUCGCAGUGGCUAUACUGCC [G29C U32A G40U]: the self-cleavage was found to be 0.02.

Regarding GGCAGAGCUCAACACAGCGUGGCAAAGUGAAUGUGGCUAGACUUCC [G30A C31A G44U], the self-cleavage is 0.

As for GGCAGAGCUCAACACAGCGUGGCAAAGUCGAUGAGGCUAGACUCCC [G29C C31A U34A G44C], the self-cleavage was 0.05.

Take GGCAGAGCUCAACACAGCGUGGCAAAGUUGCUGUGGAUAGAAUGCC [G29U C37A C42A]: the self-cleavage worked out at 0.1.

With GGCAGAGCUCAACACAGCGUGGCAAAGUUGGUGUGGCUAGACCGCC [G29U C31G U43C], the self-cleavage came out at 0.02.

On to GGCAGAGCUCAACACAGCGUGGCAAAGUGAAUGUGGCUUGACUGCA [G30A C31A A39U C46A], for which the self-cleavage was determined as 0.01.

In the case of GGCAGAGCUCAACACAGCGUGGCAAAGUCGCUGCGGAACGACUGCC [G29C U34C C37A U38A A39C], the self-cleavage was 0.

Regarding GGCAGAGCUCAACACAGCGUGGCAAAGUUGCUGUGGCUAUACUGCU [G29U G40U C46U], the self-cleavage is 0.11.

With GGCAGAGCUCAACACAGCGUGGCAAAGUUGCUGUGGAUAGACUACC [G29U C37A G44A], the self-cleavage was 0.04.

Turning to GGCAGAGCUCAACACAGCGUGGCAAAGUAGCUGUGGCCAGACUGCU [G29A U38C C46U], the self-cleavage amounted to 0.24.

With GGCAGAGCUCAACACAGCGUGGCAAAGUGAUUGUGGCUGGACUGCC [G30A C31U A39G], the self-cleavage was 0.03.

Take GGCAGAGCUCAACACAGCGUGGCAAAGUCGAUGUGUCUAGGCUGCC [G29C C31A G36U A41G]: the self-cleavage was found to be 0.03.

For the variant GGCAGAGCUCAACACAGCGUGGCAAAGUGAGUGUAGCUAGACCGCC [G30A C31G G35A U43C], the self-cleavage is 0.02.

In the case of GGCAGAGCUCAACACAGCGUGGCAAAGUUAGUGUGUCUAGACUGCC [G29U G30A C31G G36U], the self-cleavage was 0.15.

In the case of GGCAGAGCUCAACACAGCGUGGCAAAGUUGCGCUGGCUAGACUGCC [G29U U32G G33C], the self-cleavage was found to be 0.11.

As to GGCAGAGCUCAACACAGCGUGGCAAAGUCGCUGUGGCUAGACGGCU [G29C U43G C46U], the self-cleavage stood at 0.04.

As to GGCAGAGCUCAACACAGCGUGGCAAAGUUGCUGUGCCUAGGCUGCG [G29U G36C A41G C46G], the self-cleavage came out at 0.04.

Turning to GGCAGAGCUCAACACAGCGUGGCAAAGUUGACGUGGCUAGACUGCC [G29U C31A U32C], the self-cleavage was found to be 0.03.

Consider GGCAGAGCUCAACACAGCGUGGCAAAGUAGCUGUGGCCAGACUGUC [G29A U38C C45U], for which the self-cleavage came out at 0.36.

With GGCAGAGCUCAACACAGCGUGGCAAAGUCUCUGUGGCUAGAUUGCU [G29C G30U C42U C46U], the self-cleavage was 0.04.

For GGCAGAGCUCAACACAGCGUGGCAAAGUGAUUGAGGCUAGAGUGCC [G30A C31U U34A C42G], the self-cleavage was determined as 0.02.

For GGCAGAGCUCAACACAGCGUGGCAAAGUUACUGUGGCUAGACUGCG [G29U G30A C46G], the self-cleavage is 1.43.

GGCAGAGCUCAACACAGCGUGGCAAAGUCGCUUUGGCUAGAAUGCC [G29C G33U C42A]: the self-cleavage stood at 0.02.

As for GGCAGAGCUCAACACAGCGUGGCAAAGUCGCGGUGGCUAGCCUGCC [G29C U32G A41C], the self-cleavage stood at 0.07.

In the case of GGCAGAGCUCAACACAGCGUGGCAAAGUUGCUGUGGCUACACUGUC [G29U G40C C45U], the self-cleavage was 0.01.

For the variant GGCAGAGCUCAACACAGCGUGGCAAAGUUGCUGAGGAUAGACUGCC [G29U U34A C37A], the self-cleavage came out at 0.07.

As for GGCAGAGCUCAACACAGCGUGGCAAAGUUGCUGAGACUAGGCUGCC [G29U U34A G36A A41G], the self-cleavage was 0.01.

On to GGCAGAGCUCAACACAGCGUGGCAAAGUUGUUGUGGCUAGACUGUC [G29U C31U C45U], for which the self-cleavage came to 0.06.

For GGCAGAGCUCAACACAGCGUGGCAAAGUUUCUGUGGCUUGACUGCC [G29U G30U A39U], the self-cleavage was 2.54.

GGCAGAGCUCAACACAGCGUGGCAAAGUUACUGUAGCUAGACUGCC [G29U G30A G35A]: the self-cleavage stood at 0.2.

Turning to GGCAGAGCUCAACACAGCGUGGCAAAGUUUCUGAGGCUAGACUGCC [G29U G30U U34A], the self-cleavage worked out at 0.06.

For the variant GGCAGAGCUCAACACAGCGUGGCAAAGUUGCUGUGGGUAAACUGCC [G29U C37G G40A], the self-cleavage is 0.1.

With GGCAGAGCUCAACACAGCGUGGCAAAGUUGCUGUGGCUAUACAGCC [G29U G40U U43A], the self-cleavage is 0.08.

For GGCAGAGCUCAACACAGCGUGGCAAAGUUGCUCUGGCCAGACUGUA [G29U G33C U38C C45U C46A], the self-cleavage worked out at 0.01.

Turning to GGCAGAGCUCAACACAGCGUGGCAAAGUUGCUGCGGCUAGACUGUC [G29U U34C C45U], the self-cleavage worked out at 0.02.

With GGCAGAGCUCAACACAGCGUGGCAAAGUUCCUGUGGUUAGACUGCC [G29U G30C C37U], the self-cleavage is 0.05.

Consider GGCAGAGCUCAACACAGCGUGGCAAAGUCGCCGUGGCUAAACUCCC [G29C U32C G40A G44C], for which the self-cleavage turned out to be 0.05.

For the variant GGCAGAGCUCAACACAGCGUGGCAAAGUCGCUUUGGAUAGACUGCA [G29C G33U C37A C46A], the self-cleavage worked out at 0.02.

Consider GGCAGAGCUCAACACAGCGUGGCAAAGUUGCUGAGGCUAGACUGGC [G29U U34A C45G], for which the self-cleavage was found to be 0.12.

On to GGCAGAGCUCAACACAGCGUGGCAAAGUGAAUGUGGCUAGACCGCC [G30A C31A U43C], for which the self-cleavage worked out at 0.02.

GGCAGAGCUCAACACAGCGUGGCAAAGUUGCUGUGGCUAGGCUUGC [G29U A41G G44U C45G]: the self-cleavage was determined as 0.

Take GGCAGAGCUCAACACAGCGUGGCAAAGUGAGAGUGGCUAGACUGCC [G30A C31G U32A]: the self-cleavage is 0.04.

In the case of GGCAGAGCUCAACACAGCGUGGCAAAGUUGCUGCGGGUAGACUGCC [G29U U34C C37G], the self-cleavage stood at 0.1.

For GGCAGAGCUCAACACAGCGUGGCAAAGUUCCUGUGGCUAGAGUGCC [G29U G30C C42G], the self-cleavage turned out to be 0.05.

Turning to GGCAGAGCUCAACACAGCGUGGCAAAGUUGCUGUAGCUAGACUGCG [G29U G35A C46G], the self-cleavage was 0.04.
